# The whole screen tested about 110,000 compounds, of which about 230 (0.21%) showed an effect of 50% or more. Some of the results follow.
# Molecular target: DPAP1 (Plasmodium falciparum, UniProt Q8IIJ9)
# Test: primary screen, percent inhibition; read by cleavage of a fluorogenic dipeptide substrate; higher = more effect of the substance
# Design: species or system P. falciparum D10 trophozoite lysates; single well
# 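Also: 30 min substrate incubation versus DMSO and 10 µM JCP410 controls.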
# Chain of DPAP1 (Q8IIJ9 whole entry, looked up): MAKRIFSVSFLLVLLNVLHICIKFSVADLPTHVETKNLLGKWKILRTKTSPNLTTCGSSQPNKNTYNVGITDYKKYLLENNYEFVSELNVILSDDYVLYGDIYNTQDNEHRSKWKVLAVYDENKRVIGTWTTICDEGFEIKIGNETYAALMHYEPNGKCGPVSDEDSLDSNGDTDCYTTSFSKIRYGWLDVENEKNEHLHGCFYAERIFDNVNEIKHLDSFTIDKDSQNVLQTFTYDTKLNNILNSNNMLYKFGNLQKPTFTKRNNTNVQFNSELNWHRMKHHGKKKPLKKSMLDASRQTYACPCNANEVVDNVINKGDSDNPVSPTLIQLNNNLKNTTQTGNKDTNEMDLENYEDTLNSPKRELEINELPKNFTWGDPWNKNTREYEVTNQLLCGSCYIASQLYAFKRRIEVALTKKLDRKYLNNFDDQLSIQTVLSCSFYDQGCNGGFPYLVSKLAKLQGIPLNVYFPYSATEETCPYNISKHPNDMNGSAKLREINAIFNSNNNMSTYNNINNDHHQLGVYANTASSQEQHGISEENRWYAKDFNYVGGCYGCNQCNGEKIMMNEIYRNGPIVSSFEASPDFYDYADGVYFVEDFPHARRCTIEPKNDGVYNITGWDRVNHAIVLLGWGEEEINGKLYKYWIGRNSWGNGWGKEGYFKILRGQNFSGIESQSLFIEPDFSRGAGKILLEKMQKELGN
row,SMILES,% Inhibition @ 10 uM
1,Cc1cc(-c2ccc(C)c(S(=O)(=O)N3CCN(CCOc4ccc(Cl)cc4)CC3)c2)on1,-5.87%
2,N#CCNC(=O)[C@@H](CC1CCCCC1)NC(=O)OCc1ccccc1,-1.5%
3,COc1cc(C(=O)NCCC(=O)NCCN(C)C)cc(OC)c1OC,-2.26%
4,CCN(Cc1ccccc1)c1cc(C)c2ccc(Cl)cc2n1,1.83%
5,O=C(Cn1ncc2c(Cl)cccc21)NC1CCCc2ccccc21 (stereo not shown),-4.71%
6,CC(C)CC(C(=O)NCC#N)c1cccc(-c2cccc(C(=O)NCCN3CCOCC3)c2)c1 (stereo not shown),4.63%
7,CC1=C(C#N)C(C(F)(F)F)(C(F)(F)F)NC(c2cccnc2)=N1,-5.64%
8,Cc1ccccc1CS(=O)(=O)Cc1ccc(C(=O)NC(C)C)o1,6.32%
9,CC(C)(C)OC(=O)N1CCC(c2c(C(=O)NCc3ccccn3)cnn2-c2ccc(F)cc2F)CC1,-2.35%
10,CCOc1cc(C2CC(=O)N3C(=C2C#N)SCC3(O)c2ccco2)ccc1O (stereo not shown),-5.36%
11,O=c1cc(-c2ccccc2)c2cc(O)c(O)cc2o1,-2.41%
12,Cc1nc2ccccc2c(=O)n1-c1ccncc1,8.19%
13,CC(=O)N(C(C)=O)c1c(-c2ccccc2)c(C)nn1Cc1ccc(Cl)cc1,-1.68%
14,CN1C(=O)c2ccccc2C(C(=O)Nc2ccc(Cl)cn2)C1c1cccs1 (stereo not shown),4.03%
15,CCO/C(O)=C1/C(C)=NC(=S)NC1/C=C/c1ccccc1 (stereo not shown),0.847%
16,C=CCSc1nc(N)cc(O)n1,-4.27%
17,CC1CCc2c(sc(NC(=O)C3CCCCC3C(=O)O)c2C(N)=O)C1 (stereo not shown),-3.92%
18,CCOC(=O)N1CCN(C(=O)C2c3cc(OC)c(OC)cc3C(=O)N3CCc4ccccc4C23)CC1 (stereo not shown),3.53%
19,Cc1ccccc1C1C(C#N)=C(N)OC2=C1C(=O)CCC2 (stereo not shown),1.48%
20,O=C(NCc1ccc(F)cc1)NCc1cccn1Cc1ccccc1,-3.52%
21,Cn1cnc2c1c(=O)n(Cc1ccc(Br)cc1)c(=O)n2C,1.05%
22,CCOc1cc(C2Oc3ccccc3C3CC(c4cccs4)=NN32)ccc1OC (stereo not shown),-5%
23,CCc1ccc2nc(N(CCN(C)C)C(=O)c3ccc(C(C)=O)cc3)sc2c1,-1.95%
24,CC(=O)N1CCN(CCc2ccccc2)CC1,1.62%
25,NC(=O)c1ccccc1NC(=O)c1cccc(Cn2cc(Cl)cn2)c1,5.31%

row,SMILES,% Inhibition @ 10 uM
1,Cc1ccc(-c2c(N3CCCC3)c(=O)c2=O)cc1C,2.24%
2,CCN(CC)CCN1C(=O)C(O)=C(C(=O)c2ccc(Cl)cc2)C1c1ccc(F)cc1 (stereo not shown),-6.43%
3,O=C(NCCNC(=O)c1cccc(O)c1)c1cccc(O)c1,-5.2%
4,COCC(=O)Nc1ccc(Oc2cc(Cl)c(Cl)cc2Cl)cc1,-2.63%
5,CCOC(=O)c1cnn2c(N)c(C#N)cnc12,0.231%
6,CSc1ccc2c3c(cccc13)C(=O)NC2=O,4.17%
7,Cc1nc2c(C(=O)O)cnn2c(C)c1Cc1ccc(Cl)cc1,1.42%
8,O=C(C1=C(O)C(=O)N(CCCn2ccnc2)C1c1cccs1)c1cc2ccccc2o1 (stereo not shown),2.92%
9,COc1ccc2c(c1)c1c3n2CCN(C)C3=NCC1,3.8%
10,COCCCN(Cc1ccco1)C(=O)c1nn(C)c2c1COc1ccccc1-2,-3.51%
11,CCOc1cccc2cc(-c3cn4c(n3)sc3cc(Cl)ccc34)c(=O)oc12,3.05%
12,CC(C)NC(=O)c1ccc(COc2cccc3ccccc23)o1,-3.13%
13,CSc1nc2c(c(=O)n1C1CCOC(C)(C)C1)C1(CCCC1)Cc1ccccc1-2 (stereo not shown),2.38%
14,O=C(Cn1ccc2ccccc2c1=O)NCCC(=O)NC1CCCCCC1,-0.58%
15,CCOC(=O)C1CCN(Cc2ccc3c(c2)OCO3)CC1,-0.0404%
16,COc1ccc(CN(CCC2(c3ccccc3)CCOC(C)(C)C2)C(C)=O)cc1OC (stereo not shown),6.22%
17,Cc1cccc(N(CC(=O)N2CCCCCC2)S(C)(=O)=O)c1C,-3.65%
18,CCOC(=O)C1CCCN(Cc2ccc(C(F)(F)F)cc2)C1 (stereo not shown),1.63%
19,CC(CC(NC(=O)OCc1ccccc1)C(=O)NCC#N)C(F)(F)F (stereo not shown),3.66%
20,CCOc1ccc(-c2nonc2NC(=O)c2cc(OC)c(OC)c(OC)c2)cc1OCC,3.51%
21,CN1C(=O)C(=Cc2cn(-c3ccccc3)nc2-c2ccccc2)C(=O)N(C)C1=O,15.5%
22,COc1ccc(-c2csc3ncn(CC(=O)Nc4ccccc4)c(=O)c23)cc1OC,2.76%
23,O=C(CN(c1ccc(Cl)c(C(F)(F)F)c1)S(=O)(=O)c1ccccc1)NCc1cccnc1,-3.92%
24,COc1ccc(CCNC(=O)CCc2c(C)c3ccc(O)c(C)c3oc2=O)cc1OC,-2.57%
25,CCCCn1c(N2CCCCCC2)nc2c1c(=O)[nH]c(=O)n2C,-13.3%

row,SMILES,% Inhibition @ 10 uM
1,CN1CCC(N(C)Cc2c(Cl)cccc2Cl)CC1,-1.41%
2,CC(C)c1ccc(OCC(=O)N(Cc2nc(-c3ccccc3)no2)C(C)C)cc1,2.23%
3,O=C(COc1ccc(S(=O)(=O)NC2CCCCC2)cc1)NC1CCCCC1,0.83%
4,Cc1ccc(S(=O)(=O)N(C)c2ccc(C(=O)Nc3ccccc3F)cc2)cc1,3.49%
5,Cc1ccc(C)n1CCN1CCN(C(=O)CSc2nc3ccccc3nc2N2CCOCC2)CC1,-3.53%
6,Cc1cc(NC(=O)CSc2nc3nccnc3c(=O)n2Cc2ccco2)[nH]n1,1.68%
7,CCOC(=O)c1c(C)[nH]c(C)c1S(=O)(=O)N1CC=C(c2ccccc2)CC1,-4.59%
8,O=S(=O)(CC1CC1(Cl)Cl)c1nc[nH]n1 (stereo not shown),-0.0626%
9,CCCC[C@H](NC(=O)[C@H](CS(=O)(=O)Cc1ccccc1)NC(=O)N1CCOCC1)C(=O)CC(=O)OCC,1.52%
10,CCS(=O)(=O)c1c(S(=O)(=O)CC)c2ccccn2c1C(N)=O,-5.36%
11,Cc1ccc(-c2cc(C(=O)NCCN3CCOCC3)c3ccccc3n2)cc1C,-3.43%
12,Cc1cc(C)c(S(=O)(=O)NCCC2CCCN2C)c(C)c1 (stereo not shown),1.78%
13,CCC(C(=O)N1CCC(N2CCCCC2)CC1)n1nc(C)c2sc3ccccc3c2c1=O (stereo not shown),-4.09%
14,Nc1c(C(=O)Nc2ccccc2)sc2nc(-c3cccs3)ccc12,3.32%
15,CCS(=O)(=O)C1=NSC2=NC(=O)/C(=C\c3ccc(OCc4ccccc4)c(OC)c3)C(=N)N21,-3.39%
16,Clc1cccc(CN2CCN(Cc3ccccc3Br)CC2)c1,-1.1%
17,CC(C)C[C@H](NC(=O)OCc1ccccc1)C(=O)N[C@@H](CCc1ccccc1)C(=O)c1ccco1,-0.778%
18,CCCCC(=O)Nc1c(NC)c2ccccc2oc1=O,-0.668%
19,CCc1ccccc1-n1nnc(C(=O)OC)c1C(=O)OC,-1.58%
20,CCc1cc2c(SCC(=O)O)ncnc2s1,-0.294%
21,Cc1cc(/C=C2/C(=N)N3C(=NC2=O)SN=C3S(C)(=O)=O)c(C)n1-c1ccc(F)cc1,-5.27%
22,CCCN1C(=O)c2[nH]nc(-c3ccccc3O)c2C1c1ccc(O)c(OCC)c1 (stereo not shown),2.02%
23,COc1ccc(-c2nc(CS(=O)CC(=O)NCc3cccnc3)c(C)o2)cc1 (stereo not shown),0.689%
24,CCOC(=O)Nc1ccc2c(c1)N(C(=O)CCN(C)C)c1ccccc1CC2,-0.736%
25,O=C(CSc1c2c(nc3ccc(Cl)cc13)CCCC2)N1CCN(C(=O)c2ccco2)CC1,-6.89%

row,SMILES,% Inhibition @ 10 uM
1,O=C(NCc1ccc2c(c1)OCO2)C1CCC(CNS(=O)(=O)c2cccc3nsnc23)CC1 (stereo not shown),2.93%
2,O=C1OC(c2ccccc2)=N/C1=C\c1ccccc1Cl,9.52%
3,O=S(=O)(Nc1ccccc1Br)c1ccccc1,-1.86%
4,Cc1nc2ccn(Cc3cccnc3)c(=O)c2cc1C(=O)N1CCN(c2ccccn2)CC1,-8.32%
5,CCCn1c(CCc2ccccc2)nnc1SCc1nc(-c2cccs2)no1,-5.91%
6,CC[C@H](NC(=O)[C@H](CS(=O)(=O)Cc1ccccc1)OC(=O)N1CCOCC1)C(=O)C(=O)NCc1ccccc1,-1.61%
7,Cc1ccccc1OCC(=O)Nc1cccc(Cl)c1,5.66%
8,COc1ccc2ccccc2c1C1C(C#N)=C(N)Oc2c1c(C)nn2-c1ccccc1 (stereo not shown),0.746%
9,COc1ccc(C(=O)Nc2ccc(S(=O)(=O)Nc3nccc(C)n3)cc2)cc1OC,-1.44%
10,Cc1ccccc1OC(C)C(=O)Nc1cccc2ccccc12 (stereo not shown),1.28%
11,CC(C)N1CC2=C(OC(N)=C(C#N)C2c2ccccc2F)/C(=C/c2ccccc2F)C1 (stereo not shown),-0.988%
12,CCC(=O)CC(c1ccc([N+](=O)[O-])cc1)c1c(OC)c2ccccc2oc1=O (stereo not shown),0.00178%
13,COc1cccc(OC)c1C(=O)N1CCN(Cc2c(OC)ccc3ccccc23)CC1,4.7%
14,O=C(c1nn2c(C(F)(F)F)cc(-c3cccs3)nc2c1Cl)N1CCCC1,3.32%
15,CCc1ccccc1-n1nnc(-c2nsc(NC(=O)c3ccc(OC)cc3)n2)c1C,-3.04%
16,CC(C)Cc1cc(-c2ccc([N+](=O)[O-])cc2)c(C#N)c(N)n1,-0.446%
17,O=C(Cn1ncc2c3ccccc3nc-2c1O)NCCc1ccc(Cl)cc1,1.43%
18,CCc1nnc(-n2nc(C)cc2-c2ccccc2)n1N,4.67%
19,Cc1ccc(S(=O)(=O)C2(C(=O)N3CC=C(c4ccccc4)CC3)CC2)cc1,4.63%
20,Cc1cc(-c2ccccc2)nc(SCC(=O)O)n1,1.33%
21,CCC(C)NS(=O)(=O)c1ccc(NC(=O)C2CCCO2)cc1 (stereo not shown),-7.17%
22,CC1CCc2sc3ncnc(N4CCN(C)CC4)c3c2C1 (stereo not shown),-4.51%
